# Results as given in US10316079B2, “Monoclonal antibody against muramyl peptides” (priority 2012, dated 2019).
# Assays:
# [1] = ELISA binding curve of 2E7 on MDP-OVA coated wells (Kd determination)
# Description: After washes to remove unbound Abs, an anti-mouse-IgG Ab coupled with horseradish peroxidase (HSP) was added. After incubation, unbound secondary Ab was removed by washes and a chromogenic substrate of HSP was added. After reaction, the color intensity in each well was measured using a microtiter plate reader at 492 nm. […] Coefficient data: a=2.8768241, b=2.8055033, c=212.44541, and d=0.8659833. Y50=1.45, X=0.00131 μg/ml.
# A mAb (2E7) was obtained from immunization of mice with N-acetylmuramyl-L-alanyl-D-isoglutamine. […] An IgG1 mAb that specifically recognizes the glutaraldehyde linker used to couple MDP to HSA was also obtained in the screening of hybridoma clones.
# [2] = system: Escherichia coli cells; experiment: Fluorescence microscopy of cells incubated with 2E7 and FITC anti-mouse IgG; format: cell-based; conditions: 2E7 then FITC anti-mouse IgG Ab
# Description: (§1) Power Fit equation y=a*(x−b)^c using CurveExpert Basic. The standard curve was used to determine the peptidoglycan to concentration in a sample. […] Both bacteria were grown to OD600=1.5. Each culture was divided into two, and one treated with 40 μg/ml amoxicillin (Atex) and the other untreated. Aliquots were collected at the indicated times and the amount of MPs in the supernatant was determined by competitive ELISA. […] After removing unbound antibodies by PBS washes, the cells were incubated with a FITC-labeled anti-mouse IgG Ab before fluorescence microscopic examination.
# (§2) Both Staphylococcus aureus and Escherichia coli cells were first incubated with 2E7 and then with an anti-mouse IgG Ab conjugated with FITC.
# [3] = system: Staphylococcus aureus cells; experiment: as above; format: cell-based; conditions: 2E7 then FITC anti-mouse IgG Ab
# Description: as §1, §2
# [4] = system: live Escherichia coli; experiment: Aggregation of live bacterial cells incubated with 2E7; format: cell-based; conditions: data not shown
# Description: as §2
# [5] = system: live Staphylococcus aureus; experiment: as above; format: cell-based; conditions: data not shown
# Description: as §2
molecule,measurement,setting,value
"2E7: mouse monoclonal IgG1 against muramyl dipeptides; heavy chain SEQ ID NO: 3, light chain SEQ ID NO: 4; hybridoma Wy-Hyb-2E7, ATCC PTA-13256 (antibody, Heavy chain; Light chain, mouse monoclonal IgG1 against muramyl dipeptides; hybridoma Wy-Hyb-2E7, ATCC PTA-13256) heavy: MLVESGGGLVQPGGSMKLSCIVSGFTFSYYWMSWVRQSPEKGFEWVAEIRLKSENYATNYTESVKGKFTISRDDSKSRLYLQMNSLGAEDTGIYYCLTGYAWFAYWGQGTLVTVSAAKTTPPSVYPLAPGSAAQTNSMVTLGCLVKGYFPEPVTVTWNSGSLSSGVHTFPAVLQSDLYTLSSSVTVPSSTWPSETVTCNVAHPASSTK light: DVQMIQSPKRLIYLVSKLDSGVPDRFTGSGSGTDFTLKISRVEAEDLGVYYCVQHTHFPTFGGGTKLEIKRADAAPTVSIFPPSSEQLTSGGASVVCFLNNFYPKDINVKWKIDGSERQNGVLNSWTDQDSKDSTYSMSSTLTLTKDEYERHNSYTCEATHKTSTSPIVKSFNRNEC",affinity of 2E7 to MPs (in words),[1],picomolar affinity
same,2E7 concentration X at Y50=1.45 of the binding curve,"[1]; MDP-OVA coated wells, OD492, Weibull model fit",0.00131 µg/mL
same,Kd,"[1]; read-out: Kd of 2E7 for N-acetylmuramyl-L-alanyl-D-isoglutamine, MDP-OVA coated 96-well plate, Weibull model fit of OD492, IgG MW=150",8.7 pM
same,staining of cells,[2],weak staining
same,staining of cells,[3],strong staining
same,cell aggregation,[4],significant cell aggregation
same,cell aggregation,[5],significant cell aggregation
